Some of the results follow.
Tests used:
Experiment in all cases: glycan array binding signal (z-score within array); higher = stronger binding
Settings in all cases: glycan notation: IUPAC condensed, linker removed
[1] = target: Fuc(a1-2)Gal6S(b1-3)GlcNAc6S
Procedure, shortened: (§1)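 Arrays were curated from the Consortium for Functional Glycomics database, 3228 in total, and kept only where the protein sequence was available. Binding is expressed as a within-array Z-score. This score was averaged across arrays of the same protein sequence at different concentrations or buffers and across linkers, and negative values can be read as non-binding.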

Fuc(a1-2)Gal6S(b1-4)Glc = target: Fuc(a1-2)Gal6S(b1-4)Glc
Procedure, shortened: as §1

[2] = target: Fuc(a1-2)Gal6S(b1-4)Glc6S
Procedure, shortened: as §1

Fuc(a1-2)[Gal(a1-3)]Gal = target: Fuc(a1-2)[Gal(a1-3)]Gal
Procedure, shortened: as §1

[3] = target: Fuc(a1-2)[Gal(a1-3)]Gal(b1-3)GalNAc
Procedure, shortened: as §1

[4] = target: Fuc(a1-2)[Gal(a1-3)]Gal(b1-3)GalNAc(b1-3)Gal(a1-4)Gal(b1-4)Glc
Procedure, shortened: as §1

[5] = target: Fuc(a1-2)[Gal(a1-3)]Gal(b1-3)GlcNAc
Procedure, shortened: as §1

[6] = target: Fuc(a1-2)[Gal(a1-3)]Gal(b1-3)GlcNAc(b1-2)Man(a1-3)[Fuc(a1-2)[Gal(a1-3)]Gal(b1-3)GlcNAc(b1-2)Man(a1-6)]Man(b1-4)GlcNAc(b1-4)GlcNAc
Procedure, shortened: as §1

[7] = target: Fuc(a1-2)[Gal(a1-3)]Gal(b1-3)GlcNAc(b1-2)Man(a1-3)[Fuc(a1-2)[Gal(a1-3)]Gal(b1-3)GlcNAc(b1-2)Man(a1-6)]Man(b1-4)GlcNAc(b1-4)[Fuc(a1-6)]GlcNAc
Procedure, shortened: as §1

[8] = target: Fuc(a1-2)[Gal(a1-3)]Gal(b1-3)GlcNAc(b1-3)GalNAc
Procedure, shortened: as §1

[9] = target: Fuc(a1-2)[Gal(a1-3)]Gal(b1-3)GlcNAc(b1-6)GalNAc
Procedure, shortened: as §1

[10] = target: Fuc(a1-2)[Gal(a1-3)]Gal(b1-4)Glc
Procedure, shortened: as §1

[11] = target: Fuc(a1-2)[Gal(a1-3)]Gal(b1-4)GlcNAc
Procedure, shortened: as §1

[12] = target: Fuc(a1-2)[Gal(a1-3)]Gal(b1-4)GlcNAc(b1-2)Man
Procedure, shortened: as §1

[13] = target: Fuc(a1-2)[Gal(a1-3)]Gal(b1-4)GlcNAc(b1-2)Man(a1-3)[Fuc(a1-2)[Gal(a1-3)]Gal(b1-4)GlcNAc(b1-2)Man(a1-6)]Man(b1-4)GlcNAc(b1-4)GlcNAc
Procedure, shortened: as §1

[14] = target: Fuc(a1-2)[Gal(a1-3)]Gal(b1-4)GlcNAc(b1-2)Man(a1-3)[Fuc(a1-2)[Gal(a1-3)]Gal(b1-4)GlcNAc(b1-2)Man(a1-6)]Man(b1-4)GlcNAc(b1-4)[Fuc(a1-6)]GlcNAc
Procedure, shortened: as §1

[15] = target: Fuc(a1-2)[Gal(a1-3)]Gal(b1-4)GlcNAc(b1-3)GalNAc
Procedure, shortened: as §1

[16] = target: Fuc(a1-2)[Gal(a1-3)]Gal(b1-4)GlcNAc(b1-3)[Fuc(a1-2)[Gal(a1-3)]Gal(b1-4)GlcNAc(b1-6)]GalNAc
Procedure, shortened: as §1

[17] = target: Fuc(a1-2)[Gal(a1-3)]Gal(b1-4)GlcNAc(b1-6)GalNAc
Procedure, shortened: as §1

[18] = target: Fuc(a1-2)[Gal(a1-3)]Gal(b1-4)[Fuc(a1-3)]Glc
Procedure, shortened: as §1

[19] = target: Fuc(a1-2)[Gal(a1-3)]Gal(b1-4)[Fuc(a1-3)]GlcNAc
Procedure, shortened: as §1

[20] = target: Fuc(a1-2)[Gal(a1-3)]Gal(b1-4)[Fuc(a1-3)]GlcNAc(b1-3)GalNAc
Procedure, shortened: as §1

[21] = target: Fuc(a1-2)[Gal(a1-4)]Gal(b1-4)GlcNAc
Procedure, shortened: as §1

[22] = target: Fuc(a1-2)[GalNAc(a1-3)]Gal
Procedure, shortened: as §1

[23] = target: Fuc(a1-2)[GalNAc(a1-3)]Gal(b1-3)GalNAc(a1-3)[Fuc(a1-2)]Gal(b1-4)GlcNAc
Procedure, shortened: as §1

[24] = target: Fuc(a1-2)[GalNAc(a1-3)]Gal(b1-3)GalNAc(b1-3)Gal(a1-4)Gal(b1-4)Glc
Procedure, shortened: as §1

[25] = target: Fuc(a1-2)[GalNAc(a1-3)]Gal(b1-3)GlcNAc
Procedure, shortened: as §1

[26] = target: Fuc(a1-2)[GalNAc(a1-3)]Gal(b1-3)GlcNAc(b1-2)Man(a1-3)[Fuc(a1-2)[GalNAc(a1-3)]Gal(b1-3)GlcNAc(b1-2)Man(a1-6)]Man(b1-4)GlcNAc(b1-4)GlcNAc
Procedure, shortened: as §1

[27] = target: Fuc(a1-2)[GalNAc(a1-3)]Gal(b1-3)GlcNAc(b1-2)Man(a1-3)[Fuc(a1-2)[GalNAc(a1-3)]Gal(b1-3)GlcNAc(b1-2)Man(a1-6)]Man(b1-4)GlcNAc(b1-4)[Fuc(a1-6)]GlcNAc
Procedure, shortened: as §1

[28] = target: Fuc(a1-2)[GalNAc(a1-3)]Gal(b1-3)GlcNAc(b1-3)GalNAc
Procedure, shortened: as §1

[29] = target: Fuc(a1-2)[GalNAc(a1-3)]Gal(b1-3)GlcNAc(b1-6)GalNAc
Procedure, shortened: as §1

[30] = target: Fuc(a1-2)[GalNAc(a1-3)]Gal(b1-4)Glc
Procedure, shortened: as §1

[31] = target: Fuc(a1-2)[GalNAc(a1-3)]Gal(b1-4)GlcNAc
Procedure, shortened: as §1

[32] = target: Fuc(a1-2)[GalNAc(a1-3)]Gal(b1-4)GlcNAc(b1-2)Man
Procedure, shortened: as §1

[33] = target: Fuc(a1-2)[GalNAc(a1-3)]Gal(b1-4)GlcNAc(b1-2)Man(a1-3)[Fuc(a1-2)[GalNAc(a1-3)]Gal(b1-4)GlcNAc(b1-2)Man(a1-6)]Man(b1-4)GlcNAc(b1-4)GlcNAc
Procedure, shortened: as §1

[34] = target: Fuc(a1-2)[GalNAc(a1-3)]Gal(b1-4)GlcNAc(b1-2)Man(a1-3)[Fuc(a1-2)[GalNAc(a1-3)]Gal(b1-4)GlcNAc(b1-2)Man(a1-6)]Man(b1-4)GlcNAc(b1-4)[Fuc(a1-6)]GlcNAc
Procedure, shortened: as §1

[35] = target: Fuc(a1-2)[GalNAc(a1-3)]Gal(b1-4)GlcNAc(b1-3)Gal(b1-4)GlcNAc
Procedure, shortened: as §1

[36] = target: Fuc(a1-2)[GalNAc(a1-3)]Gal(b1-4)GlcNAc(b1-3)Gal(b1-4)GlcNAc(b1-3)Gal(b1-4)GlcNAc
Procedure, shortened: as §1

[37] = target: Fuc(a1-2)[GalNAc(a1-3)]Gal(b1-4)GlcNAc(b1-3)GalNAc
Procedure, shortened: as §1

[38] = target: Fuc(a1-2)[GalNAc(a1-3)]Gal(b1-4)GlcNAc(b1-3)[Fuc(a1-2)[GalNAc(a1-3)]Gal(b1-4)GlcNAc(b1-6)]GalNAc
Procedure, shortened: as §1

[39] = target: Fuc(a1-2)[GalNAc(a1-3)]Gal(b1-4)GlcNAc(b1-6)GalNAc
Procedure, shortened: as §1

[40] = target: Fuc(a1-2)[GalNAc(a1-3)]Gal(b1-4)[Fuc(a1-3)]GlcNAc
Procedure, shortened: as §1

[41] = target: Fuc(a1-2)[GalNAc(a1-3)]Gal(b1-4)[Fuc(a1-3)]GlcNAc(b1-3)GalNAc
Procedure, shortened: as §1

[42] = target: Fuc(a1-2)[GalNAc(a1-4)]Gal(b1-4)GlcNAc
Procedure, shortened: as §1

[43] = target: Fuc(a1-2)[GalNAc(b1-3)]Gal
Procedure, shortened: as §1

B1: Cohesin-marm-DC-ASGPR (protein)
chain: LDITSHHHHHHDDLDAVRIKVDTVNAKPGDTVRIPVRFSGIPSKGIANCDFVYSYDPNVLEIIEIEPGDIIVDPNPDKSFDTAVYPDRKIIVFLFAEDSGTGAYAITKDGVFATIVAKVKEGAPNGLSVIKFVEVGGFANNDLVEQKTQFFDGGVNVGDTTEPATPTTPVTTPTTTDDLDAASSKFQRDLVTLRTDFSNFTSNTLAEIQALTSQGSSLQETIASLKAEVEGHKQELQAGASELQEHNKQKAHLGRCPHTCVCPSSFVCVPVHSEILLRVQQLVQDLNKLSCQVAILKNNATTERTCCPINWVEHQGSCYWFSRSGKTWPEAERYCQLENTHLVVINSREEQNFVQAHLGSAYTWMGLSDPEGVWKWVDGTDYSSGFQNWKPGQPDDWQGHGLGGGEDCAHFHPDGRWNDDVCQRSYHWVCEAGLTQASQDSHAS
glycan array binding signal (z-score) [1]: -0.143 | glycan array binding signal (z-score) (Fuc(a1-2)Gal6S(b1-4)Glc): -0.285 | glycan array binding signal (z-score) [2]: -0.277 | glycan array binding signal (z-score) (Fuc(a1-2)[Gal(a1-3)]Gal): -0.3 | glycan array binding signal (z-score) [3]: -0.303 | glycan array binding signal (z-score) [4]: -0.308 | glycan array binding signal (z-score) [5]: 0.045 | glycan array binding signal (z-score) [6]: -0.292 | glycan array binding signal (z-score) [7]: -0.292 | glycan array binding signal (z-score) [8]: -0.293 | glycan array binding signal (z-score) [9]: 4.11 | glycan array binding signal (z-score) [10]: -0.168 | glycan array binding signal (z-score) [11]: -0.282 | glycan array binding signal (z-score) [12]: -0.239 | glycan array binding signal (z-score) [13]: -0.283 | glycan array binding signal (z-score) [14]: -0.238 | glycan array binding signal (z-score) [15]: -0.309 | glycan array binding signal (z-score) [16]: -0.22 | glycan array binding signal (z-score) [17]: -0.204 | glycan array binding signal (z-score) [18]: -0.294 | glycan array binding signal (z-score) [19]: -0.288 | glycan array binding signal (z-score) [20]: -0.311 | glycan array binding signal (z-score) [21]: -0.299 | glycan array binding signal (z-score) [22]: -0.083 | glycan array binding signal (z-score) [23]: -0.272 | glycan array binding signal (z-score) [24]: -0.252 | glycan array binding signal (z-score) [25]: -0.141 | glycan array binding signal (z-score) [26]: -0.176 | glycan array binding signal (z-score) [27]: -0.291 | glycan array binding signal (z-score) [28]: -0.221 | glycan array binding signal (z-score) [29]: 3.82 | glycan array binding signal (z-score) [30]: -0.285 | glycan array binding signal (z-score) [31]: -0.034 | glycan array binding signal (z-score) [32]: -0.149 | glycan array binding signal (z-score) [33]: -0.267 | glycan array binding signal (z-score) [34]: -0.254 | glycan array binding signal (z-score) [35]: -0.26 | glycan array binding signal (z-score) [36]: -0.272 | glycan array binding signal (z-score) [37]: -0.271 | glycan array binding signal (z-score) [38]: -0.2 | glycan array binding signal (z-score) [39]: 4.32 | glycan array binding signal (z-score) [40]: -0.233 | glycan array binding signal (z-score) [41]: -0.292 | glycan array binding signal (z-score) [42]: 4.11 | glycan array binding signal (z-score) [43]: 3.73

Source: the supplement of paper PMC8728848
